As usually defined, the % Inhibition is the relative decrease from the control value, in per cent.

Hit rate of the full screen: of about 150,000 compounds, about 540 (0.36%) showed an effect of 50% or more. This is one part of the list.

This is an account of results in ChEMBL document CHEMBL4888484, “Replenishing the malaria drug discovery pipeline: Screening and hit evaluation of the MMV Hit Generation Library 1 (HGL1) against asexual blood stage Plasmodium falciparum ,using a nano luciferase reporter read-out” (2022).

The assay has as its system Plasmodium falciparum. In words: Primary screen in NF54 nanoGlo assay, in single point, at 2uM, 72h; a lower Z score goes with more inhibition. It counts as functional, Erythrocyte. The conditions noted are these: timepoint 72 hour.
`COC1(OC)CCOC[C@@H]1NC(=O)c1cc2c(C)c(C)ccc2[nH]1`: the “% Inhibition” value is listed as -4% and the Z score amounted to 0.41.
Take `Cc1cccc(C)c1NC(=O)c1cccc(NC(=O)c2ccncc2F)c1`: the “% Inhibition” value is on record as -4% and the Z score is 0.48.
The matching figures for `CN(Cc1ccccc1)C(=O)[C@H]1CCCN(C2CCN(Cc3ccncc3)CC2)C1`: 2% and -0.38.
`COc1ccccc1Nc1c(-c2ccc3c(c2)OCO3)nc2cnccn12`: the “% Inhibition” value was found to be 5% and the Z score is -0.6.
The corresponding values for `CN1CC(NC(=O)C2(C)CC2(Cl)Cl)CCC1=O` (stereo not drawn) are 8% and -1.13.
The matching figures for `CC[C@H](NC(=O)c1ncccc1O)c1ncccc1C`: -19% and 1.75.
The matching figures for `Cc1noc(C2CCN(C(=O)[C@H](C(C)C)N3CCCCC3)CC2)n1`: 3% and -0.45.
For the compound `O=C(CCc1ccncc1)NC[C@@H](c1ccc(F)cc1)N1CCCC1`, the “% Inhibition” value is reported as -11% and the Z score is recorded as 1.61.
`CCN1CCC[C@@H]1CNC(=O)c1c(C)noc1C`: the “% Inhibition” value is -1% and the Z score is recorded as 0.21.
As for `Cc1csc(CNC2CCOC2c2ccccc2)n1` (stereo not drawn), the “% Inhibition” value is given as -6% and the Z score worked out at 0.58.
The corresponding values for `Cn1ncc(N2CCO[C@@H](CCNc3ncnc4c3CCC4)C2)cc1=O` are -11% and 2.21.
The corresponding values for `CC/C=C\CCCN1C[C@@H]2CN(C)C[C@]2(C(=O)O)C1` are 9% and -1.27.
In the case of `CC(C)c1nnc([C@H](C)NC(=O)c2ccn(C(C)C)n2)o1`, the “% Inhibition” value is -2% and the Z score amounted to 0.36.
The corresponding values for `C=CCN(CC(=O)N1CCN(c2ccc(-c3cccc(OC)c3)nn2)CC1)C(=O)c1ccc2c(c1)OCO2` are -6% and 0.78.
Take `COc1ccccc1NC(=O)c1cnc2c(c1)ncn2C`: the “% Inhibition” value was -1% and the Z score is listed as 0.12.
The matching figures for `O=C(N[C@@H]1CN(C(=O)c2ccc(F)cc2)CC[C@@H]1CO)c1ccccc1`: -10% and 1.3.
As for `NC(=O)Cc1cccc2c1CCN([C@H]1CCc3cc(Cl)ccc31)C2`, the “% Inhibition” value is on record as -2% and the Z score is listed as 0.3.
The corresponding values for `Cc1nn(CC(=O)O)c(C)c1NC(=O)c1c(-c2ccccc2Cl)noc1C` are -4% and 0.54.
The corresponding values for `CCCN1C(=O)COc2cc(-c3noc(C(=O)NCCCc4ccccc4)n3)ccc21` are -4% and 0.51.
The matching figures for `O=C(c1cc(-c2cccc3ccccc23)[nH]n1)N1CCC(N2CCCCC2)CC1`: -1% and 0.18.
As for `Cc1nn(C)cc1-c1c(-c2ccccc2)ncn1[C@H]1C[C@H]2CC[C@@H]1O2`, the “% Inhibition” value is -8% and the Z score is 1.47.
Consider `O=C1CN(C(=O)c2ccc(Cl)cc2)S(=O)(=O)c2ccccc21`, for which the “% Inhibition” value is listed as -31% and the Z score is on record as 3.65.
The corresponding values for `COC[C@H](Cc1ccccc1)N(C)CC(=O)NC(C1CC1)C1CC1` are 5% and -0.44.
On to `C/C=C(\C)CN1CC[C@H](CNC(=O)Cc2ccncc2)C1`, for which the “% Inhibition” value is -10% and the Z score is 1.52.
The corresponding values for `CC(C)c1noc([C@@H]2CCCCN2C(=O)C2CCN(C(C)C)CC2)n1` are 10% and -1.29.
The corresponding values for `Cc1cccc(CCNC(=O)c2ccc(CN3CCC(C)CC3)o2)n1` are 7% and -1.31.
Regarding `Cn1cc(C(=O)N(CC(F)F)c2cccc(Cl)c2)ccc1=O`, the “% Inhibition” value is recorded as -15% and the Z score is listed as 1.55.
The corresponding values for `O=C1NCCN(Cc2cccs2)[C@H]1CC(=O)N1CCN(c2ccccc2)CC1` are -14% and 1.26.
The matching figures for `CCc1nc2ccccc2n1[C@@H](CC)C(=O)N1CCS(=O)(=O)CC1`: 2% and -0.3.
The matching figures for `O=C(NCCN1CCCCC1)c1ccsc1`: -15% and 2.35.
For the compound `CC(C)(C)OC(=O)N1CCC(c2c(C(=O)N3CCN(C(=O)c4ccco4)CC3)cnn2C(C)(C)C)CC1`, the “% Inhibition” value is -6% and the Z score is reported as 0.94.
For `C[C@]1(COc2ccncc2)CCCN(Cc2ccccc2F)C1`, the “% Inhibition” value is reported as -3% and the Z score worked out at 0.37.
The matching figures for `COc1c(F)ccc(F)c1C(=O)Nc1nn(-c2ccccc2Cl)cc1C`: -17% and 1.96.
The corresponding values for `Cc1cccc(C(=O)N/C(=N/c2ccc3c(c2)OCCO3)NCCN2CCOCC2)c1` are -32% and 2.93.
The corresponding values for `O=C1CC[C@H](C(=O)NC2CC2c2ccccc2C(F)(F)F)N1` (stereo partly drawn) are 1% and -0.15.
With `COc1ccc(CNC(=O)Cn2ccc3ccc(N4CCCCC4)nc32)c(OC)c1`, the “% Inhibition” value is -12% and the Z score is on record as 1.63.
The corresponding values for `Cc1ocnc1CNC(=O)NC1(Cc2ccccc2)CCCC1` are 32% and -3.63.
The matching figures for `O=C(C1CCN(S(=O)(=O)c2ccc(-c3noc(-c4cc(Cl)ccc4Cl)n3)cc2)CC1)N1CCCC1`: -16% and 1.95.
As for `NC(=NCc1c(F)cccc1F)N1CCN(c2ccc(F)cc2)CC1`, the “% Inhibition” value is -10% and the Z score stood at 1.44.
As for `Cc1nonc1CNS(=O)(=O)CC1CCCC1`, the “% Inhibition” value is -9% and the Z score is reported as 1.64.
The corresponding values for `CN(C(=O)NCCOc1cccc(Br)c1)[C@H]1CCOC1` are -7% and 1.21.
Turning to `CC1CCN(c2nc3c(O)ncnc3n2C2OC(CO)C(O)C2O)CC1` (stereo not drawn), the “% Inhibition” value is 6% and the Z score is listed as -1.22.
For the compound `CCCS(=O)(=O)N1CC(c2nc(CCOCC3CCOCC3)no2)C1`, the “% Inhibition” value is listed as -11% and the Z score is listed as 1.42.
The corresponding values for `CN(Cc1ccccc1OCc1c(F)cccc1Cl)C[C@H]1CCOC1` are -5% and 0.63.
The matching figures for `CC(c1nnnn1C)N1CC(C)(C)C1C1CCCO1` (stereo not drawn): -10% and 1.38.
The matching figures for `Cc1ccc(S(=O)(=O)NCc2nc(-c3ccccc3)oc2C)c(C)c1`: -1% and 0.22.
Regarding `CCN1CCC(NC(=O)C(C)(C)C#N)C1c1cc(F)c(F)c(F)c1` (stereo not drawn), the “% Inhibition” value is reported as -7% and the Z score was determined as 0.63.
`Fc1ccc(F)c(-c2nc(-c3ccnc(N4CCCC4)c3)no2)c1`: the “% Inhibition” value is listed as -11% and the Z score is 1.63.
The corresponding values for `COCc1nsc(N2CCC[C@H](c3nncn3C)C2)n1` are 0% and 0.01.
The matching figures for `CN(Cc1csc(-c2ccccc2)n1)C(=O)c1cc(C2CC2)no1`: -12% and 2.19.
The matching figures for `CCn1nnc(C)c1C(=O)NC[C@H](C)c1ccccn1`: -16% and 2.37.
For the compound `CC(=O)N[C@@H](C(N)=O)c1nnc(-c2ccc(C)cc2)o1`, the “% Inhibition” value is recorded as -8% and the Z score came to 1.06.
The corresponding values for `Cc1cc(O[C@H]2CCN(C(=O)c3ccncc3)C2)nc(C)n1` are 0% and 0.01.
The matching figures for `CCN(C(=O)CS(=O)(=O)c1ccc(Br)cc1)C1CC1`: -4% and 0.48.
The corresponding values for `CC(C)c1cc(C(=O)N2C[C@@H](c3ccccc3Cl)OCC2(C)C)no1` are 5% and -0.62.
Take `COc1cc(Nc2ncccc2S(=O)(=O)Nc2ccc(C)c(C)c2)cc(OC)c1OC`: the “% Inhibition” value is reported as -3% and the Z score is given as 0.37.
The corresponding values for `O=C(O)[C@H](Cc1ccccc1)Nc1nc(C(F)(F)F)ns1` are -3% and 0.65.
With `CC1(C)CC(=O)c2ccc(OCC3CCN(C(=O)C(C)(C)C)CC3)cc2O1`, the “% Inhibition” value is given as -6% and the Z score is 0.76.
The matching figures for `CC1CCCC(NC(=O)CN2C(=O)COc3ccc(Cl)cc32)C1C` (stereo not drawn): -5% and 0.91.
The corresponding values for `Cc1cccc(NC(=O)[C@H]2CC(=O)OC2(C)C)c1` are -3% and 0.44.
The matching figures for `O=C(Nc1ccn(-c2ccc(Cl)cc2Cl)n1)c1cccnc1`: 8% and -1.21.
For `CCC1CCC(NCC(C)(C)CN(C)C)CC1` (stereo not drawn), the “% Inhibition” value was -4% and the Z score is 0.82.
The matching figures for `Cc1cccc(-n2c(=O)[nH]c3nc(N4CCCC4)ncc3c2=O)c1C`: -4% and 0.62.
In the case of `Cc1nc2c(s1)[C@@H](N(C)S(=O)(=O)C1(Cl)CC1)CCC2`, the “% Inhibition” value is -11% and the Z score is 1.28.
On to `CCO[C@H]1[C@H](NC(=O)c2cccnc2)c2ccccc2C12CCN(C(=O)C#Cc1ccccc1)CC2`, for which the “% Inhibition” value was -7% and the Z score was 0.95.
Regarding `N#Cc1c(NC(=O)c2ccc3ccccc3n2)sc2c1CCCC2`, the “% Inhibition” value is recorded as -5% and the Z score is on record as 0.65.
The matching figures for `CC(=O)N[C@H]1CCCN(Cc2cc(CN3CCN(C)CC3)c(C)cc2C)C1`: -5% and 0.66.
The matching figures for `CC1CCC(C)N1C(=O)C1=CCCCO1` (stereo not drawn): -11% and 1.12.
The corresponding values for `O[C@@]1(CNCc2noc(-c3ccco3)n2)CCCN2CCCC[C@@H]21` are -10% and 1.84.
As for `COc1ccc(NC(=O)[C@@H]2CCCN2S(=O)(=O)c2ccc3c(c2)OCCO3)cc1OC`, the “% Inhibition” value is on record as -3% and the Z score was determined as 0.39.
The corresponding values for `CO[C@H]1CS(=O)(=O)C[C@@H]1NS(=O)(=O)c1cccc(C)c1` are 3% and -0.47.
The matching figures for `Cc1noc2ncnc(N3CCC4(CC3)CC(=O)N(Cc3ccccc3)C4)c12`: -6% and 0.71.
As for `Cn1c(=O)c2c(c(-c3ccccc3)cn2C)n(CC(=O)Nc2ccc(Br)cc2F)c1=O`, the “% Inhibition” value is -8% and the Z score amounted to 1.11.
The corresponding values for `CC(C)c1cc(C(=O)N2CCCCCC2)no1` are -2% and 0.19.
As to `COCCN(Cc1cc(NC(=O)CC(C)C)ccc1N(C)C)C(=O)C(C)C`, the “% Inhibition” value was -18% and the Z score is 2.55.
As for `Cc1cc(C)c(S(=O)(=O)N2c3ccccc3Oc3nc4ccccc4nc32)c(C)c1`, the “% Inhibition” value is recorded as -14% and the Z score was found to be 1.6.
The matching figures for `Cc1ccc(Br)c2[nH]c(C(=O)N3CC[C@H](O)C3)cc12`: 3% and -0.31.
The corresponding values for `O=C(CCc1ccccc1)N[C@H]1CC[C@H](Oc2ncc(F)cn2)CC1` are -10% and 1.77.
The matching figures for `O=C(CCN1CCCO1)N1CC[C@@]2(CCCN(CCc3ccccc3)C2)C1`: -24% and 2.15.
`CN(C)CC1CCN(C(=O)c2ccc(NC(=O)c3cc(F)cc(F)c3)cc2O)CC1`: the “% Inhibition” value is -14% and the Z score is reported as 1.5.
The matching figures for `Cc1ccc(S(=O)(=O)NCCn2nc(-c3ccccc3)n(C3CC3)c2=O)cc1`: -7% and 1.21.
The matching figures for `COc1ccccc1-c1noc(CN2CCC[C@H]2c2cnn(C)c2)n1`: 7% and -1.08.
The corresponding values for `OCCN(Cc1ccc(CO)o1)c1ccccc1` are -1% and 0.14.
Turning to `CCOc1cc(CN2CC[S+]([O-])CC2)ccc1OC`, the “% Inhibition” value is recorded as 6% and the Z score is listed as -1.1.
